Measured values: PubChem BioAssay AID1240 (Sanford-Burnham Center for Chemical Genomics, 2008)
The campaign covered roughly 50,000 compounds. About 800 (1.6%) showed an effect of 50% or more. The list shows a part of the results.

The compounds below were run against Bcl-2-like protein 10 (Homo sapiens) (UniProt Q9HD36) (assay: TR3 peptide-Bcl-B binding displacers, biochemical primary FP assay, phenotype converters (AID 1240;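 note: 0% = Bcl-B with tracer peptide and DMSO and 100% = tracer peptide lacking Bcl-B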)). Details: GST-Bcl-B / FITC-TR3 peptide fluorescence polarization; stronger effect = higher value; compound at 3.75 mg/L.
Sequence of UniProt Q9HD36 (Q9HD36 whole entry, looked up): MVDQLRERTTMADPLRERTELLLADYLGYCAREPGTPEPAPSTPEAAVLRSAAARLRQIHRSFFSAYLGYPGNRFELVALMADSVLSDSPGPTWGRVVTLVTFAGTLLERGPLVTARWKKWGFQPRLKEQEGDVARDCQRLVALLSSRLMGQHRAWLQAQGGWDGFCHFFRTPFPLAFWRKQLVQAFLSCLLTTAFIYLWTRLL

Structure (SMILES) | displacement
O=C1OC(c2ccccc2F)=N/C1=C\c1ccc2c(c1)OCO2 | 80%
CC(C)C1=NN2C(=N)/C(=C/c3ccc(OCc4ccc(F)cc4)cc3)C(=O)N=C2S1 | 6.4%
O=[N+]([O-])c1ccc(-c2[nH]nc(-c3ccccc3)c2-c2nc3ccccc3[nH]2)cc1 | 12.7%
O=C(N/N=C/c1ccc(-c2ccc(I)cc2)o1)c1ccccn1 | -8%
O=C(O)c1ccc(C=Nc2cccc3ccccc23)cc1 | 46.4%
Cc1ccc(C(=O)NN2C(=O)C3C4C=CC(C5CC45)C3C2=O)cc1 (stereo not drawn) | -18.2%
COc1ccc(/C=C2\SC(=S)N(c3cccc(F)c3)C2=O)c(OC)c1 | 12.2%
O=C(C[n+]1ccc(NC(=O)c2ccccc2)cc1)c1ccccc1 | 10%
COc1ccc2c(c1)C(=O)/C(=C/c1cccc(I)c1)CC2 | 10.5%
COc1cc(/C=N/NC(=O)c2ccncc2)cc(OC)c1O | 10%
COc1ccccc1NC(=O)c1ccc(NC(=O)C(C)(C)C)cc1 | -4.6%
C=CCn1c(SCC(=O)OCC)nnc1-c1ccc([N+](=O)[O-])cc1 | -4.9%
CC(C)=C1C2C=CC1C1C(=O)N(c3ccc(C)cc3[N+](=O)[O-])C(=O)C21 (stereo not drawn) | 12.1%
C#CCSc1nc2ccccc2n1C(=O)c1sc2ccccc2c1Cl | -1%
CCN1C(=O)/C(=C\c2cccc(OC)c2OC)SC1=S | -0.3%
CCOc1ccc(NC(=O)C(NS(=O)(=O)c2ccc(C)cc2)C(C)C)cc1 (stereo not drawn) | 11%
COC(=O)C1=C(C)NC2=C(C(=O)CCC2)C1c1ccc(OCc2ccc([N+](=O)[O-])cc2)c(OC)c1 (stereo not drawn) | 10%
O=c1oc(-c2ccc(Cl)c(Cl)c2)nc2ccccc12 | -0.6%
COC1CCCCC1N1CCN(C(=O)c2ccco2)CC1 (stereo not drawn) | 1.2%
Cc1[nH]n(-c2nc(-c3ccccc3)cs2)c(=O)c1N=Nc1ccc(C(=O)O)cc1 | 4.5%
Cc1cc(C(=O)Nc2ccc(C(N)=O)cc2)ccc1[N+](=O)[O-] | 2.6%
COc1ccc(S(=O)(=O)Nc2ccc(Br)cc2C)cc1 | 11.4%

Structure (SMILES) | displacement
CCOC(=O)C1=NN(C(=O)c2cccc(C)c2)C(O)(c2ccc(Cl)cc2)C1 (stereo not drawn) | -0.2%
O=C(/C=C/c1ccccc1)Nc1nnc(-c2ccccc2)s1 | 7.6%
Cc1ccc(OCCCCn2ccnc2)c(Cl)c1 | -2%
COc1ccc(/C=C2/N=C(c3cccc(C)c3)N(c3ccc(O)cc3)C2=O)cc1OC | 11%
O=C(NCCCn1ccnc1)c1ccccc1Br | -8.7%
CC(C)(C)C(=O)Nc1ccc(-c2nc3ccccc3o2)cc1 | 2.6%
CC1(C)CC(=O)C(N=Nc2ccc3[nH]c(=O)[nH]c3c2)=C(O)C1 | -26%
CCCCNC(=O)/C(=C/c1ccc(-c2cccc([N+](=O)[O-])c2)o1)NC(=O)c1ccc(OC)cc1 | 9.9%
CC1CCOP(=O)(C(Nc2ccc(Br)cc2)c2ccc(Br)cc2)O1 (stereo not drawn) | -11.6%
O=C(CCCOc1ccccc1)Nc1ccc2c(c1)OCO2 | -0.7%
COc1cccc(NC(=O)C(=O)N/N=C/c2ccc(C(=O)O)cc2)c1 | 6.3%
COC(=O)C(NC(=O)CCC1CCCCC1)C12CC3CC(CC(C3)C1)C2 (stereo not drawn) | 4.1%
O=C(/C=C/c1cccc([N+](=O)[O-])c1)Nc1ccc(N2CCOCC2)cc1 | 4.6%
CC(=O)OCCCNc1cc(N2CCCC2)ccc1[N+](=O)[O-] | -4%
COC(=O)c1ccc(-c2nc3nnc(C)n3[nH]2)cc1 | 5.9%
O=C(CSc1ccccn1)Nc1ccc([N+](=O)[O-])cc1 | 0.6%
O=c1[nH]c(N/N=C/C2CC=CCC2)nnc1-c1ccccc1 (stereo not drawn) | -19.2%
N#Cc1ccccc1N=C1CCCN1Cc1ccccc1 | 17.4%
CC(C)(C)c1ccc(C(=O)NNC(=O)c2ccc(Cl)cc2Cl)cc1 | -9.3%
Cc1c(C(c2cc(Br)ccc2O)c2c(C)n(C)n(-c3ccccc3)c2=O)c(=O)n(-c2ccccc2)n1C | -9.1%
O=C(O)CN1C(=O)/C(=C2\SC(=S)NC2=O)c2ccccc21 | 36%
Cc1ccc2nc(NC(=O)c3c(-c4ccccc4)noc3C)sc2c1 | 2.1%

Structure (SMILES) | displacement
CC(=O)Nc1ccc(NC(=O)c2ccccc2-c2ccccc2C(=O)O)cc1 | -5.9%
CN(C)c1ccc(C2/C(=C(\O)c3ccc(F)cc3)C(=O)C(=O)N2CCCCCC(=O)O)cc1 (stereo not drawn) | 9.1%
COc1ccc(Br)cc1C(=O)Nc1nc(-c2ccccc2)cs1 | -2.9%
COc1ccc(C2/C(=C(/O)c3ccc(C)cc3)C(=O)C(=O)N2CCCn2ccnc2)cc1 (stereo not drawn) | 6.3%
Cc1c(C)c2ccc(OC(C)C)c(C)c2oc1=O | -0.7%
Oc1c(/C=C2/C=Nc3ccccc32)sc(=S)n1-c1cccc(C(F)(F)F)c1 | 2.5%
Cc1ccc(N2C(=O)c3ccc(-c4nc5c(C)cccc5c(=O)o4)cc3C2=O)cc1C | -2.5%
O=P(CCCO)(c1ccccc1)c1ccccc1 | 20.9%
N#CC(C#N)=NNc1ccccc1C(=O)O | -0.9%
COc1ccc(/C=C(C(=O)O)/C(C)=C/C(=O)O)c(OC)c1 | 7.5%
CCn1c(=O)c(C(=O)NCCN2CCOCC2)c(O)c2ccccc21 | 1.4%
CC(=O)Nc1ccc(Oc2ccc(NC(C)=O)c(NC(C)=O)c2)cc1 | -0.1%
O=C(O)C(c1ccccc1)C(c1ccccc1)c1ccccc1 (stereo not drawn) | -1.6%
C=C(C)c1cccc(C(C)(C)NC(=O)NCc2ccco2)c1 | -1.9%
O=C(COc1ccccc1)N1N=C(c2ccc(Cl)cc2)CC1(O)C(F)(F)F (stereo not drawn) | 4.5%
O=C(/C=C/c1cccc([N+](=O)[O-])c1)Nc1ccc(N2CCCCC2)cc1 | -1.4%
COc1ccc(-c2cc(C(=O)Nc3sc(C)c(C)c3C#N)c3ccccc3n2)c(OC)c1 | -1.7%
CC1=CC(C)(C)NC(=S)N1c1ccc2ccccc2c1 | -0.3%
O=S(=O)(c1ccccc1)N(Cc1ccc(F)cc1)c1ccccc1 | -1.1%
CCc1ccc(NC(=O)C(=O)NCc2ccccc2OC)cc1 | 6.8%
O=C1Nc2ccccc2/C1=c1/sc2nc3ccccc3n2c1=O | 13.2%
CC(C)c1ccc(CNC(=O)CSCC(=O)Nc2ccccc2)cc1 | -11.1%

Structure (SMILES) | displacement
Cc1ccc(-c2noc(COc3cccc(C)c3)n2)cc1 | 3.2%
COc1ccc(NC(=O)CCN2C(=O)S/C(=C/c3ccc(OC)c(OC)c3)C2=O)cc1 | -1.4%
COc1ccc(/C=C2\SC(=S)N(CCCCCC(=O)Nc3ccccc3C(=O)O)C2=O)cc1 | 8.3%
COc1ccc(/C(C)=N\N=C2\NC(=O)CC(C(=O)NCCc3ccc(S(N)(=O)=O)cc3)S2)cc1 (stereo not drawn) | -2%
O=C1C=Cc2ccccc2/C1=N/Oc1ccc2noc3c2c1C(=O)c1ccccc1-3 | 25.9%
Cc1ccc(N(CC(=O)NC2CCCC2)S(=O)(=O)c2ccccc2)cc1 | 7.2%
CCOC(=O)C1=C(C)N=c2s/c(=C\c3cccc([N+](=O)[O-])c3)c(=O)n2C1c1ccc(OC(C)=O)cc1 (stereo not drawn) | 8.6%
CCCCCC(=O)NNC(=O)Nc1ccccc1 | -4.8%
O=c1oc2ccccc2cc1-c1nc2ccccc2s1 | -1%
CCOc1ccc(S(=O)(=O)N(CC(=O)Nc2ccc(C)cc2)c2ccc(C)cc2)cc1 | 16.5%
O=C(Nc1ccc(-c2ccc(Cl)cc2)cc1)c1ccco1 | 12.5%
Cc1c(NC(=O)CN2C(=O)/C(=C/c3ccccc3Cl)SC2=S)c(=O)n(-c2ccccc2)n1C | 12.8%
CC12CC3CC(C)(C1)CC(C(=O)Nc1ccc(Cl)cc1)(C3)C2 | 6.9%
Cc1sc2nc(SCC(=O)NCCO)n(-c3ccccc3)c(=O)c2c1C | 1.9%
Cc1ccc(S(=O)(=O)Nc2cc(C)c(O)c(Sc3ncn[nH]3)c2)cc1 | 19.8%
Cc1ccc(N2CCN(/N=C\c3ccccc3C(F)(F)F)CC2)cc1 | -1.7%
O=[N+]([O-])/C(=C\c1ccccc1)c1ccccc1 | -12.2%
COc1cc(N)c(C(c2ccc(C)o2)c2ccc(C)o2)cc1OC | 5.3%
COC(=O)C(=O)/C=C(/O)c1ccc(C)cc1 | 7.7%
Cc1ccccc1CNC(=O)CN(c1ccc(Oc2ccccc2)cc1)S(C)(=O)=O | 7.2%
O=C(Nc1sc2c(c1C(=O)Nc1ccccc1)CCC2)c1cccc(Br)c1 | -4.9%
O=C(NCCNc1ccc(Cl)cc1[N+](=O)[O-])c1ccccc1Br | 5.3%

Structure (SMILES) | displacement
O=C(CCN1C(=O)/C(=C/c2ccc(Cl)cc2)SC1=S)Nc1cccc(O)c1 | -3.6%
CC(NC(=O)COc1ccc(Br)cc1)c1ccccc1 (stereo not drawn) | 3.2%
C/C(=N\NC(=O)c1ccco1)c1ccco1 | 5.3%
COc1ccccc1C(=O)N1CCN(S(C)(=O)=O)CC1 | 9.2%
O=C(NCc1ccccc1Cl)C(=O)NC1CC1 | 5.6%
CCCOc1cccc(C(=O)Nc2scc(-c3ccccc3Cl)c2C(=O)OC)c1 | 5.1%
CN1CCN(c2ccc([N+](=O)[O-])cc2/C=N/NC(=O)CCc2ccccc2O)CC1 | -10.4%
CC(C)(C)c1csc(N/N=C/c2ccc(O)cc2)n1 | -18.6%
C=CCNC(=O)/C(=C/c1ccc(C)cc1)NC(=O)c1ccc(C)cc1 | 12.7%
Cc1ccc(S(=O)(=O)N2CCC(Cc3ccccc3)CC2)cc1C | 10%
O=C(Nc1cccc(Cl)c1)/C(=C\c1cccs1)NC(=O)c1cccs1 | -15.7%
O=C(NCc1cccnc1)c1ccc(S(=O)(=O)N2CCOCC2)cc1 | 8.7%
O=C1NC(=Nc2ccc(Br)cc2)S/C1=C\c1ccc2c(c1)OCO2 | 68.8%
C=CCn1c(SCC(=O)N2CCOCC2)nc2sc3c(c2c1=O)CCCC3 | 0.6%
CSc1ccc(/C=C/C(=O)c2ccc(NC(=O)c3cccs3)cc2)cc1 | 8.5%
O=C(COc1ccc2ccc(=O)oc2c1)Nc1ccccn1 | 29%
O=C(O)CCCC(=O)N1CCN(Cc2ccccc2)CC1 | 0.5%
CC(C)NC(=O)c1ccc(I)cc1 | 12.7%
O=C(Nc1ccccn1)c1ccc2c(c1)OCO2 | -1%
O=C(CN1CCN(C(c2ccccc2)c2ccccc2)CC1)Nc1ccc(F)cc1 | 9.6%
